# Assay results reported in ChEMBL document CHEMBL4888484, “Replenishing the malaria drug discovery pipeline: Screening and hit evaluation of the MMV Hit Generation Library 1 (HGL1) against asexual blood stage Plasmodium falciparum ,using a nano luciferase reporter read-out” (2022).
# About 540 (0.36%) of roughly 150,000 compounds showed an effect of 50% or more. This is one part of the list.
# System: Plasmodium falciparum
# Assay: Primary screen in NF54 nanoGlo assay, in single point, at 2uM, 72h; a lower Z score goes with more inhibition
# Type: functional, Erythrocyte
# Details: timepoint 72 hour
SMILES,% Inhibition,Z score
N[C@](CO)(c1ccccc1)C(F)(F)F,14%,-1.38
N#CCCN(CCC(F)(F)F)C(=O)c1ccccc1O,5%,-0.41
CN(C)C(=O)c1csc(C(C)(C)C)n1,2%,-0.3
O=C(Nc1ncccc1O)C1CCCC(C(=O)Nc2ncccc2O)C1 (configuration not stated),0%,0.02
CCOc1ccc(Cn2c(=O)c3sccc3n(CC(=O)NCc3ccccc3)c2=O)cc1,-5%,0.7
Cc1ccnc(OCC(=O)NC(C)C)n1,-5%,0.92
CC(C)c1nnc(Cn2ncn(C)c2=O)s1,-10%,1.36
Nc1nc(N2CCC(n3cc(C4CCCC4)nn3)CC2)c2cn[nH]c2n1,-5%,0.98
CN(C)CC(=O)N1CCN(C(=O)CC2CCCCC2)[C@@H]2CS(=O)(=O)C[C@@H]21,-2%,0.27
COCc1nc(CCCn2cncn2)n(-c2ccncc2)n1,-3%,0.36
CCC(Oc1ccc2c(c1)C(c1cccc(F)c1)N(C(=O)C(C)C)CC2)C(=O)NCC1CCCO1 (configuration not stated),-9%,1.38
CCOc1ncccc1CN[C@@H](C)c1ccc2ccccc2n1,-11%,0.99
CCN(CC)c1nc(Nc2ccc(C)cc2)nc(N(CC)CC)n1,-6%,0.91
Cn1c(=O)n(C)c2cc(N3CCCC3)c(NC(=O)Nc3ccc(F)cc3)cc21,-13%,1.9
O=C1CN(CC(=O)N2CCCCC[C@H]2c2noc(-c3ccccc3)n2)C(=O)N1,-2%,0.42
CC(C)(C)CCNC(=O)[C@H]1CCCN(C2CCN(Cc3cccnc3)CC2)C1,-5%,0.85
Cc1csc(C2(NC(=O)Nc3cnc(C)nc3C3CC3)CCC2)n1,9%,-1.45
CN(CCc1ccccn1)C(=O)c1cc(NC(=O)c2ccccc2)cc2ncn(C3CCCC3)c12,-9%,1.14
COc1ccccc1CC(=O)N1Cc2cccnc2C1,10%,-1.18

SMILES,% Inhibition,Z score
C[C@H](O)CN(CC(F)F)C(=O)c1ccc(Cl)c2occc12,7%,-0.91
Cc1c[nH]c(CN2CCC3(CCC(=O)N(Cc4ccccc4)C3)CC2)n1,-4%,0.56
CC(C)(C)N1C(=O)c2ccc(-c3nc4ccccc4s3)cc2C1=O,9%,-1.12
COC(=O)[C@H](C)N(C(=O)c1scnc1C)C1CCC1,-9%,1.27
C#CCCCC(=O)Nc1ccc(C)c(N2CC[C@H](N(C)C)C2)c1,10%,-1.3
CC(C)(NC(=O)CCc1ccncc1)c1nnc(N)s1,-5%,0.91
CN(Cc1ccc(-n2cccn2)cc1)C(=O)C[C@H]1CCS(=O)(=O)C1,-2%,0.2
Cc1ccc(Br)c(C(=O)Nc2cncc3c2CCCC3)n1,3%,-0.72
O=S(=O)(NC[C@H]1CCCNC1)c1cccc(F)c1F,-13%,1.86
CC(C)CNC1OCc2ccccc2CO1,-6%,0.72
CS(=O)(=O)NCc1ccc(S(N)(=O)=O)cc1,3%,-0.39
COC[C@H](C)NC(=O)c1ccc(C)c(C)c1,6%,-0.82
Cc1ccc(Cn2nc(C3CCNCC3)n(Cc3ccccc3)c2=O)cc1F,-12%,1.32
O=C(O)C1CCN(C(=O)C2Cc3ccccc3O2)C2CCCC12 (configuration not stated),-13%,1.6
Cn1nncc1CN1CCC(S(=O)(=O)N2CCCC2)CC1,-14%,2.63
O=C1[C@H]2CCCCN2C(=O)N1Cc1ccc2cncn2c1,-7%,0.93
N#C[C@@H]1CC[C@H](NC(=O)NC(Cc2ccccc2)c2ncco2)C1 (some centres not stated),-4%,0.77
Clc1cccc(C2(c3nc([C@H]4CCOC4)no3)CC2)c1,3%,-0.32
CCC[C@H]1C[C@@H](NC(C)=O)C[C@@H](C2CCCCC2)O1,-6%,0.6

SMILES,% Inhibition,Z score
Cn1ccc(-c2cc(C(=O)NC[C@H]3Cc4ccccc4CN3)no2)n1,2%,-0.27
Cn1c(=O)[nH]c(=O)c2c1nc(NC1CCCCC1)n2C[C@H](O)COc1ccccc1,-11%,1.87
O=C(c1c[nH]c2ccccc12)N1CCC[C@H](Oc2cccnn2)C1,1%,-0.11
CNC(=O)c1cccc(N[C@@H]2COCC[C@@H]2OCc2c(C)noc2C)n1,-5%,1.02
CCOC(=O)CO/N=C(/c1nonc1N)N1CCOCC1,4%,-0.64
CCCn1ncc(C)c1NC(=O)CN1CCCCC1=O,-12%,2.29
Cn1ccc2cc(C[C@@H]3CC[C@H](CN4CCC(C(=O)O)CC4)O3)ccc21,-9%,1.61
Cn1cccc1-c1nnc(C2(c3ccc(Br)cc3)CCOCC2)o1,-1%,0.21
Cc1ccc(CN)c(OCCCC(C)C)c1,1%,-0.18
COc1cnccc1C(C)NCC(O)C(F)(F)F (configuration not stated),-5%,0.54
Cc1cc(CS(=O)(=O)CC(=O)N(C)Cc2ccccc2)on1,9%,-1.41
Cc1ccc(COC2CN(S(=O)(=O)c3cccc4nsnc34)C2)cc1,0%,0.03
CC(C)C(=O)N1CCCN([C@H]2CCc3ccccc3NC2=O)CC1,-7%,0.79
COc1ccc(C2c3cnn(C(C)(C)C)c3NC3=NC(=O)N(c4ccc(Cl)cc4)C32)cc1O (configuration not stated),-2%,0.26
O=C(NCc1ccccc1)N1C[C@H]2CC[C@@H](C1)N(CC1CCC1)C2=O,8%,-1.19
CC[C@H]1C[C@@H]1C(=O)NCC1Cc2ccccc2C1,-9%,1.75
Cc1ccc(NS(=O)(=O)c2cc(-c3cc(C(F)(F)F)on3)sc2C)cc1C,3%,-0.44
COc1ccc(N2CCN(C(=O)CCC3=Nc4ccccc4S(=O)(=O)N3)CC2)cc1,-2%,0.28
